According to the supplement of paper PMC11417369:
± gives the standard deviation of the averaged measurements. Some of the results follow.

System: PfAP2-EXP AP2 domain (GST-tagged)
Assay: gcPBM binding intensity (ln(normalized median fluorescence intensity)); higher = stronger DNA binding
Summary of the method: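 For binding intensity, the highest Masliner-normalised natural-log median intensity across replicate spots of either probe orientation was taken. Protein bound to the array was stained with Alexa488 anti-GST antibody and scanned at 488 nm. The protein, GST-tagged P. falciparum DNA-binding domains from E. coli at about 25 μg on average, had been applied for 1 h to an Agilent 4 × 180k array of primer-extended double-stranded 36-bp intergenic genomic probes and negative controls.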

Row | Sequence | gcPBM binding intensity (ln)
1 | TATTTGTAATATTATACACACATTATATATTACAAA [CACACA_site5804] | 8.54 ± 0.37
2 | TATTTTGTATATAAATGTACAAGTATATATTTTTTC [XGTACX_site7855] | 8.33 ± 0.31
3 | ATTTAAATAACGTATGTATATACATATATATATATA [TGCATGCA_negctrl_site207] | 10 ± 0.22
4 | CGTAGCCACACTAACACACACAAATATACACAATCA [CACACA_site7379] | 8.52 ± 0.61
5 | ATATATTATATATATATATATATATATTATTATTGT [TGCATGCA_negctrl_site286] | 8.81 ± 0.2
6 | TATGAATATTTGTATACATGCATATAGAAATCATAT [TGCATGCA_site533] | 8.76 ± 0.36
7 | GCTTTAATCTGAAAGTGTACAGATAATATATTTATA [XGTACX_site2462] | 8.22 ± 0.34
8 | TGCATTATTTACAAGGTGCGTTACAAATGTGTAACA [GTGCAC_site9442] | 8.71 ± 0.18
9 | TTTTTTTTTTTTTTTTTTTTTTTTTCATATTAATAT [GTGCAC_negctrl_site351] | 8.15 ± 0.47
10 | TTGGCATACAGACACACACACACACCCCCACATATA [CACACA_site590] | 9.43 ± 0.61
11 | ATTGATACATCCAATACACACTACATATTATGATGT [CACACA_site6965] | 8.56 ± 0.36
12 | AATTTATTAAAAAAATGTACTTATTTTTTTGTATAA [XGTACX_site5844] | 8.25 ± 0.34
13 | ACATATTGTAGATATTGTACATATTGTGTATATATT [XGTACX_site7620] | 8.31 ± 0.34
14 | AATATGGAATGAAATAACAATCGGGAGTATATTACC [CACACA_negctrl_site93] | 8.9 ± 0.35
15 | TATATATATGTTCTTACACACACGAATATATATATG [CACACA_site3304] | 8.71 ± 0.29
16 | CTTTCTCTCAAAATGACATGCAATTTGTTTCTTTTT [TGCATGCA_site169] | 8.94 ± 0.18
17 | ATGCGTTTAGCAAAAAGTACATATATATATAATATT [XGTACX_site1928] | 8.47 ± 0.35
18 | ATATATATATATATTTGTACTTAATTGATTTTACTT [XGTACX_site2663] | 10.11 ± 0.085
19 | ATTTTTTCTAGACATGCATGTGAAATTTACTTTTTT [TGCATGCA_site305] | 9.35 ± 0.19
20 | TTGAAATACTTTATTTGTACATATAGCAAAGTGTAT [XGTACX_site8782] | 8.48 ± 0.31
21 | ATTATTGATTTATAAACACACACTCGAAGATGTTTA [CACACA_site8294] | 8.4 ± 0.37
22 | TTTTTTTTTTTTTTTACACACTTTATTCAAACAACT [CACACA_site4104] | 8.34 ± 0.54

Row | Sequence | gcPBM binding intensity (ln)
23 | ATTTTTTTTTAATGCAATATATTTTGAAAATTTTAT [CACACA_negctrl_site753] | 8.54 ± 0.35
24 | TAATATCTTGAGTCATCACACATTGATTAATGAATC [CACACA_site5735] | 8.2 ± 0.38
25 | TGAATACAGATATTCACACAAATAGTTTTGATATAT [CACACA_site5527] | 8.14 ± 0.52
26 | AAAAAAATATATAATAGTACATATATAGGAATATAT [XGTACX_site4591] | 8.41 ± 0.34
27 | AGTGGAAATTTTATTTGTACATAAATATTTACATAC [XGTACX_site633] | 8.39 ± 0.27
28 | CTTTTTTTTTTTTTTGCACACACATATATAAATATA [CACACA_site3950] | 8.76 ± 0.41
29 | AGATCATAATATTATACACACATTATATATCTGTAA [CACACA_site4925] | 8.54 ± 0.42
30 | TTTTGAATATATTAAATAAATTAAAAATCTACAAAC [GTGCAC_negctrl_site622] | 8.26 ± 0.36
31 | TAATAAATTCAAAACATAAAAAGGAAAAAAAAAAAA [CACACA_negctrl_site1330] | 8.52 ± 0.47
32 | TTATTATATACAAAATGTACACAGAATAATTTGAAT [XGTACX_site2314] | 8.51 ± 0.31
33 | ATATATATATATATATGTACATAATATATTATATAT [XGTACX_site924] | 10.2 ± 0.33
34 | TTTTTTTTTTTTTTGGTGCAGTTCACATATTATATA [GTGCAC_site9996] | 8.71 ± 0.26
35 | TGTGTAAGCACATACAAACACACAACCTTATTTTTA [CACACA_site2187] | 8.5 ± 0.42
36 | TATATTAACAAAATGGTGCAATAATTTCTATATTGT [GTGCAC_site9430] | 8.65 ± 0.22
37 | TTATTATATTAAAAGAGGACACATTTATTTTTTTTT [XGTACX_site1241] | 8.09 ± 0.53
38 | AAAATATTTAATAGAAGTACACATGTATATATACAT [XGTACX_site8942] | 8.61 ± 0.44
39 | AAAAAAAAAAAAAAAAAAAAAAAAAAAAATAAAAAA [CACACA_negctrl_site59] | 8.84 ± 0.31
40 | TGTATAAAAAGAAAAAATCGTATGTGTTATCAAAAA [GTGCAC_negctrl_site490] | 8.47 ± 0.4
41 | ACGATTCAAAGGGAATATAAAATATTATTATCTATA [CACACA_negctrl_site1739] | 8.14 ± 0.44
42 | AACCAATATGCGTATACACACATAAATATAAATATA [CACACA_site3780] | 8.35 ± 0.22
43 | AATAGAATAATCCTTACACACACACCCACACGAATA [CACACA_site8053] | 8.88 ± 0.54
44 | ATATATTTTTTTTATACATGCAATGCATTTACGTTG [TGCATGCA_site565] | 8.88 ± 0.028

Row | Sequence | gcPBM binding intensity (ln)
45 | TTTTTTTTTTTTTGAACACACATTATTAATTTTTAT [CACACA_site308] | 8.26 ± 0.54
46 | TTTTTTATATATTAGGAATTTATAAAATTAGAAGGT [GTGCAC_negctrl_site617] | 9.43 ± 0.67
47 | GTATTAATTTTAAGGTGTACGCAAAAAATTTAATTT [XGTACX_site718] | 8.53 ± 0.23
48 | AACCAGTTGATGTGTACACATATAGTAATAATTTTA [CACACA_site5564] | 8.78 ± 0.4
49 | TTTCTATTACGAACGTGTACATACATTATTCTTAAA [XGTACX_site5816] | 8.88 ± 0.26
50 | TAGAAAAAAATAGATGCATGCAATGAATGAATAATA [TGCATGCA_site14] | 10.3 ± 0.17
51 | TTTTTGTTAATAAGTATGCACTATCTCATTTTTGTA | 8.64 ± 0.29
52 | ATATATTTTGGGGACTTTTTAAAAAAGAAGTATTAA [TGCATGCA_negctrl_site337] | 8.61 ± 0.42
53 | GAGCATTACACATATACACACATATAAATAAACATA [CACACA_site7315] | 8.57 ± 0.43
54 | CTATACTATGAAAAGTGTACGAATAGCTAGCTATTT [XGTACX_site5927] | 8.49 ± 0.4
55 | TAGTAGTATTCATCCAGTACATATAAATGTATAATA [XGTACX_site7552] | 8.41 ± 0.37
56 | GAGAAATTTATACATACACACATATAAATATTATAG [CACACA_site7819] | 8.36 ± 0.25
57 | CTTTGCATTACGAACATACACACAGAATAACTGAAA [CACACA_site3024] | 8.62 ± 0.54
58 | TTTTAATGAAATATCAAAAAAATTTATGATTTCAAA [GTGCAC_negctrl_site662] | 7.61 ± 0.35
59 | AATAATATATAAGAAAGTACAAAAAAATAAAATAAA [XGTACX_site3302] | 8.85 ± 0.38
60 | AAAAAGAAAAAACTTACACACATATATACACCCATG [CACACA_site8079] | 8.68 ± 0.49
61 | ATATCAAATAGACAAACACACAAAGGAAGAGTGAAA [CACACA_site3921] | 8.96 ± 0.52
62 | TTCTTTTTTTTTTTTTTTTTTTTATAGTACAAAAAA [TGCATGCA_negctrl_site450] | 8.34 ± 0.3
63 | ATCTATATTATTTCTACACACATATCTATAATATGT [CACACA_site7561] | 8.79 ± 0.5
64 | TTTTTTTTTTTGTGTGCATGTGCTAGGAAAGGTAGG [TGCATGCA_site330] | 8.85 ± 0.23
65 | TTGTTCATCTTTTTTTTTTTTTTTTTTTTTTAAATC [CACACA_negctrl_site191] | 8.18 ± 0.62
66 | ATTAATAAAAGATAAAGTACAAATCGGAAAATGAAT [XGTACX_site7846] | 8.88 ± 0.51

Row | Sequence | gcPBM binding intensity (ln)
67 | TTTCAATGTGACACGTGTCCGTAAAATTACATAATT [XGTACX_site7073] | 8.72 ± 0.42
68 | AAGATTAAACATTGCACACAGAAATATATTTTCTAT [CACACA_site2374] | 8.49 ± 0.36
69 | TGTTATTATTAAGACACACACACAAAAAAAAAAAAA [CACACA_site1481] | 8.49 ± 0.58
70 | TGAACTCATAGGAAAACACACATATGTGCAATATAT [CACACA_site6231] | 9.14 ± 0.44
71 | ACAATGATAGTGTAAAGTACATATATATAAAAAAAT [XGTACX_site5928] | 8.98 ± 0.51
72 | TTTATAATATGTTATACATGCAGGTACCTTTTTGTA [TGCATGCA_site746] | 8.93 ± 0.4
73 | ATTTATAATTTTTGAGCACACACAAGCATATATATA [CACACA_site8531] | 8.66 ± 0.32
74 | TCCTTATTTTGCAGGAGTACCATTTTTTAAAAATAC [XGTACX_site5968] | 8.81 ± 0.21
75 | AATAACAATTATAAAAGTACAGATTTTTATTTCTAA [XGTACX_site5746] | 8.08 ± 0.28
76 | ACAATTACTTATTTTAATTTTTTTAATCTATTGATT [CACACA_negctrl_site967] | 8.18 ± 0.39
77 | TTTTTTTTGTTATGAACATGCAAATTAAAATATAAT [TGCATGCA_site954] | 8.46 ± 0.39
78 | TAAATACATAAAAATTGTACACATTGTTTTCTCTTT [XGTACX_site6435] | 8.35 ± 0.42
79 | CAACAATTTCGTCATACACACATTCAGAATATATAT [CACACA_site2370] | 8.6 ± 0.51
80 | TACTTTTCTTAAAGATGTACGTTTTAAAAATAAAAT [XGTACX_site14] | 8.31 ± 0.22
81 | AAGGAAATAATTAAATGTACAAAAAAAAAAAAAATT [XGTACX_site562] | 8.46 ± 0.4
82 | TACAAACAAACACATAGCAATATATGTTATCAAAAA [XGTACX_negctrl_site1] | 8.53 ± 0.4
83 | TTTTATGCTCAATTATTAAGAAATACTTTTTCTTCC [XGTACX_negctrl_site208] | 8.38 ± 0.41
84 | ATATTTTTTTTTCTTTCGCACACGTGAAAGAATTTC [CACACA_site8636] | 8.73 ± 0.43
85 | AAAATAAAAATTAACTGTACATACATTATTCAAATT [XGTACX_site6106] | 8.37 ± 0.39
86 | AGAAGTTTATCTTTTAGTACGCATAAAAAAAAAAAA [XGTACX_site2359] | 8.63 ± 0.43
87 | TATAAATAATTATATTGTACTCTTTATATTTTTCTT [XGTACX_site5335] | 8.59 ± 0.32
